# Numbering of substitutions follows the chain as printed; changes in the protein carry UniProt numbers. Some of the results follow.
# T1: RBFOX1 RRM RbFoxmut (Fox-RRM*) (Homo sapiens, UniProt Q9NWB1 109-208, R118D;E147R;N151S;E152T)
# T1 sequence: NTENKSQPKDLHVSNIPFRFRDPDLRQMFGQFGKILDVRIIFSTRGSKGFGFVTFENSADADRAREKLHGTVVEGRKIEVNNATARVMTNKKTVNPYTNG
# B1: GUGUACG (DNA:RNA)
# RNA: GGGAGACCGGAAUUCAGAUUGUCCGUGUACGUUAAAUCCCGUCGUAGCCACCA
# DNA 1: CAATCTGAATTCCGGTCTCCC
# DNA 2: TGGTGGCTACGACGGGATT
# B2: GGAAAUU (DNA:RNA)
# RNA: B1 RNA with U26G, G27A, U28A, C30U, G31U
# DNA 1: CAATCTGAATTCCGGTCTCCC
# DNA 2: TGGTGGCTACGACGGGATT
# B3: CAUUCUG (DNA:RNA)
# RNA: B1 RNA with G25C, U26A, G27U, A29C, C30U
# DNA 1: CAATCTGAATTCCGGTCTCCC
# DNA 2: TGGTGGCTACGACGGGATT
# B4: AUAAGUC (DNA:RNA)
# RNA: B1 RNA with G25A, G27A, U28A, A29G, C30U, G31C
# DNA 1: CAATCTGAATTCCGGTCTCCC
# DNA 2: TGGTGGCTACGACGGGATT
# B5: CAUCUAA (DNA:RNA)
# RNA: GGGAGACCGGAAUUCAGAUUGUCCCAUCUAAUUAAAUCCCGUCGUAGCCACCA
# DNA 1: CAATCTGAATTCCGGTCTCCC
# DNA 2: TGGTGGCTACGACGGGATT
# B6: GGAGGAG (DNA:RNA)
# RNA: B1 RNA with U26G, G27A, U28G, A29G, C30A
# DNA 1: CAATCTGAATTCCGGTCTCCC
# DNA 2: TGGTGGCTACGACGGGATT
# B7: AAGCGCU (DNA:RNA)
# RNA: B5 RNA with C25A, U27G, U29G, A30C, A31U
# DNA 1: CAATCTGAATTCCGGTCTCCC
# DNA 2: TGGTGGCTACGACGGGATT
# B8: CUAUGUG (DNA:RNA)
# RNA: B1 RNA with G25C, G27A, A29G, C30U
# DNA 1: CAATCTGAATTCCGGTCTCCC
# DNA 2: TGGTGGCTACGACGGGATT
# B9: AUGGGGC (DNA:RNA)
# RNA: B1 RNA with G25A, U28G, A29G, C30G, G31C
# DNA 1: CAATCTGAATTCCGGTCTCCC
# DNA 2: TGGTGGCTACGACGGGATT
# B10: AGCUAAU (DNA:RNA)
# RNA: B1 RNA with G25A, U26G, G27C, C30A, G31U
# DNA 1: CAATCTGAATTCCGGTCTCCC
# DNA 2: TGGTGGCTACGACGGGATT
# B11: UGUAUCC (DNA:RNA)
# RNA: B5 RNA with C25U, A26G, C28A, A30C, A31C
# DNA 1: CAATCTGAATTCCGGTCTCCC
# DNA 2: TGGTGGCTACGACGGGATT
# B12: UUUUGUC (DNA:RNA)
# RNA: B1 RNA with G25U, G27U, A29G, C30U, G31C
# DNA 1: CAATCTGAATTCCGGTCTCCC
# DNA 2: TGGTGGCTACGACGGGATT
# B13: GGCCUCG (DNA:RNA)
# RNA: B1 RNA with U26G, G27C, U28C, A29U
# DNA 1: CAATCTGAATTCCGGTCTCCC
# DNA 2: TGGTGGCTACGACGGGATT
# B14: GAAAUUA (DNA:RNA)
# RNA: B5 RNA with C25G, U27A, C28A, A30U
# DNA 1: CAATCTGAATTCCGGTCTCCC
# DNA 2: TGGTGGCTACGACGGGATT
# B15: CGCCUGA (DNA:RNA)
# RNA: B5 RNA with A26G, U27C, A30G
# DNA 1: CAATCTGAATTCCGGTCTCCC
# DNA 2: TGGTGGCTACGACGGGATT
# B16: UGGCAGC (DNA:RNA)
# RNA: B1 RNA with G25U, U26G, U28C, C30G, G31C
# DNA 1: CAATCTGAATTCCGGTCTCCC
# DNA 2: TGGTGGCTACGACGGGATT
# B17: UCUGUCC (DNA:RNA)
# RNA: B5 RNA with C25U, A26C, C28G, A30C, A31C
# DNA 1: CAATCTGAATTCCGGTCTCCC
# DNA 2: TGGTGGCTACGACGGGATT
# B18: UUGUUCU (DNA:RNA)
# RNA: B1 RNA with G25U, A29U, G31U
# DNA 1: CAATCTGAATTCCGGTCTCCC
# DNA 2: TGGTGGCTACGACGGGATT
# B19: AGUAUAC (DNA:RNA)
# RNA: B5 RNA with C25A, A26G, C28A, A31C
# DNA 1: CAATCTGAATTCCGGTCTCCC
# DNA 2: TGGTGGCTACGACGGGATT
# B20: UCUAAUU (DNA:RNA)
# RNA: B5 RNA with C25U, A26C, C28A, U29A, A30U, A31U
# DNA 1: CAATCTGAATTCCGGTCTCCC
# DNA 2: TGGTGGCTACGACGGGATT
# B21: CGAGACA (DNA:RNA)
# RNA: B5 RNA with A26G, U27A, C28G, U29A, A30C
# DNA 1: CAATCTGAATTCCGGTCTCCC
# DNA 2: TGGTGGCTACGACGGGATT
# B22: CUCUAUG (DNA:RNA)
# RNA: B1 RNA with G25C, G27C, C30U
# DNA 1: CAATCTGAATTCCGGTCTCCC
# DNA 2: TGGTGGCTACGACGGGATT
# B23: UGACGAU (DNA:RNA)
# RNA: B5 RNA with C25U, A26G, U27A, U29G, A31U
# DNA 1: CAATCTGAATTCCGGTCTCCC
# DNA 2: TGGTGGCTACGACGGGATT
# B24: CCGAUGU (DNA:RNA)
# RNA: B5 RNA with A26C, U27G, C28A, A30G, A31U
# DNA 1: CAATCTGAATTCCGGTCTCCC
# DNA 2: TGGTGGCTACGACGGGATT
# B25: AUUCAUU (DNA:RNA)
# RNA: B5 RNA with C25A, A26U, U29A, A30U, A31U
# DNA 1: CAATCTGAATTCCGGTCTCCC
# DNA 2: TGGTGGCTACGACGGGATT
# B26: CUCUCGA (DNA:RNA)
# RNA: B5 RNA with A26U, U27C, C28U, U29C, A30G
# DNA 1: CAATCTGAATTCCGGTCTCCC
# DNA 2: TGGTGGCTACGACGGGATT
# B27: AGUGAAA (DNA:RNA)
# RNA: B5 RNA with C25A, A26G, C28G, U29A
# DNA 1: CAATCTGAATTCCGGTCTCCC
# DNA 2: TGGTGGCTACGACGGGATT
# B28: ACUGGCU (DNA:RNA)
# RNA: B5 RNA with C25A, A26C, C28G, U29G, A30C, A31U
# DNA 1: CAATCTGAATTCCGGTCTCCC
# DNA 2: TGGTGGCTACGACGGGATT
# B29: AGCAUAG (DNA:RNA)
# RNA: B5 RNA with C25A, A26G, U27C, C28A, A31G
# DNA 1: CAATCTGAATTCCGGTCTCCC
# DNA 2: TGGTGGCTACGACGGGATT
# B30: GGUGACG (DNA:RNA)
# RNA: B1 RNA with U26G, G27U, U28G
# DNA 1: CAATCTGAATTCCGGTCTCCC
# DNA 2: TGGTGGCTACGACGGGATT
# B31: CCGGUGG (DNA:RNA)
# RNA: B5 RNA with A26C, U27G, C28G, A30G, A31G
# DNA 1: CAATCTGAATTCCGGTCTCCC
# DNA 2: TGGTGGCTACGACGGGATT
# Target: T1, RBFOX1 RRM RbFoxmut (Fox-RRM*)
# Test: EMSA; HiTS-Eq, 1 nM pool, 10 min; buffer printed only for the single-RNA assays: 10 mM Tris pH 7.5, 150 mM NaCl, 3.4 mM EDTA, 0.001% NP-40, 30 C
# Conditions: tags: His6 N-terminal (pET28a); label: 5' 32P
# In short: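 Purified RbFox RRM, wild type or mutant, was incubated for 10 min in 50 µL with 1 nM of a 5′-radiolabelled RNA pool carrying 7 randomized nucleotides, whose flanks were annealed to DNA oligonucleotides, over a series of increasing protein concentrations. Unbound RNA was resolved on 8% native PAGE, cut out, reverse-transcribed, barcoded by PCR and sequenced on an Illumina HiSeq 2500. Relative association constants were derived from changes in read counts for each RNA species versus the control reaction and normalised to the cognate motif.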
row,Binder,binding signal
1,B1,0.441 KA relative to UGCAUGU
2,B2,0.0758 KA relative to UGCAUGU
3,B3,0.0859 KA relative to UGCAUGU
4,B4,0.088 KA relative to UGCAUGU
5,B5,0.0986 KA relative to UGCAUGU
6,B6,0.0853 KA relative to UGCAUGU
7,B7,0.0814 KA relative to UGCAUGU
8,B8,0.134 KA relative to UGCAUGU
9,B9,0.0737 KA relative to UGCAUGU
10,B10,0.0781 KA relative to UGCAUGU
11,B11,0.15 KA relative to UGCAUGU
12,B12,0.229 KA relative to UGCAUGU
13,B13,0.228 KA relative to UGCAUGU
14,B14,0.0829 KA relative to UGCAUGU
15,B15,0.105 KA relative to UGCAUGU
16,B16,0.0718 KA relative to UGCAUGU

row,Binder,binding signal
1,B17,0.0789 KA relative to UGCAUGU
2,B18,0.113 KA relative to UGCAUGU
3,B19,0.116 KA relative to UGCAUGU
4,B20,0.0829 KA relative to UGCAUGU
5,B21,0.0616 KA relative to UGCAUGU
6,B22,0.147 KA relative to UGCAUGU
7,B23,0.0625 KA relative to UGCAUGU
8,B24,0.103 KA relative to UGCAUGU
9,B25,0.0922 KA relative to UGCAUGU
10,B26,0.0774 KA relative to UGCAUGU
11,B27,0.095 KA relative to UGCAUGU
12,B28,0.125 KA relative to UGCAUGU
13,B29,0.106 KA relative to UGCAUGU
14,B30,0.116 KA relative to UGCAUGU
15,B31,0.0753 KA relative to UGCAUGU

# Source: article PMC9911399, “Two distinct binding modes provide the RNA-binding protein RbFox with extraordinary sequence specificity”
